This is one part of the list. The data describe in vitro nicking of single-stranded DNA by Rep domains (1 h at 37 °C, 3 µM enzyme); the outer parts of the 90-letter strands are left off. The score is log2 (uncut reads / reads without enzyme); strong cutting gives strongly negative numbers. There is no active / inactive call. Reads are scaled to the total, so uncut sequences can rise above 0 when many others are cut.

Holding throughout (assay): uncleaved DNA left, log2 of reads against the no-enzyme library (log2 ratio); higher = less cleavage (more negative = more Rep cleavage of the k-mer); sequences stand for … in CTCGTCCG…ACCGGAGA
Test [1] has as its system T1, Rep nickase domain of Muscovy duck circovirus.
T1 sequence (residues 1-111, tag not shown): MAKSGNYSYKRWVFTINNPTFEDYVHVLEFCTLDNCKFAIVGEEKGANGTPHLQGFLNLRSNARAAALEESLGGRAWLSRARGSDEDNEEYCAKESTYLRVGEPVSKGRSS
As for the experimental part:
(§1)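 A pool of 90-nt single-stranded DNAs with seven random bases just before the constant AC of the nick site (name = the seven bases) was cut by 3 µM recombinant His6-SUMO-tagged Rep nickase domain (300 nM DNA, 50 mM HEPES pH 8.0, 50 mM NaCl, 1 mM MnCl2, 1 h, 37 °C, three replicates). Uncut DNA was amplified and sequenced.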

Test [2] has as its system T2, Rep nickase domain of banana bunchy top virus.
T2 sequence (residues 1-94, tag not shown): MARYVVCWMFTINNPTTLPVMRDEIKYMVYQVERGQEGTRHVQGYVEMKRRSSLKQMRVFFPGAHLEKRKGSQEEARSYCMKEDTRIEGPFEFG
The method, then:
as §1

The subject of test [3] is T3, Rep nickase domain of cabbage leaf curl virus.
T3 sequence (residues 1-116, tag not shown): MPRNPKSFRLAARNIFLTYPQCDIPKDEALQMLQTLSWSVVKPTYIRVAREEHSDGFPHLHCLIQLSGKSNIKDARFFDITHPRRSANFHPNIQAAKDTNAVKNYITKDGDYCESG
As for the experimental part: as §1
The test system of test [4] is T4, Rep nickase domain of chickpea chlorotic dwarf virus.
T4 sequence (residues 1-124, tag not shown): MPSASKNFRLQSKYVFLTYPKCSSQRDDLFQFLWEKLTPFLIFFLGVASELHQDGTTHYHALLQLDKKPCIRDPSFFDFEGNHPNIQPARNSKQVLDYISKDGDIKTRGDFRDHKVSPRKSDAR
As for the experimental part:
as §1

Test [5] has as its system T5, Rep nickase domain of faba bean necrotic yellows virus.
T5 sequence (residues 1-98, tag not shown): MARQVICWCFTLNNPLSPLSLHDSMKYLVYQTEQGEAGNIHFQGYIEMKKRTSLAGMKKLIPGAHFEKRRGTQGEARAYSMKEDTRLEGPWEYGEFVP
As for the experimental part: as §1
The subject of test [6] is T6, Rep nickase domain of maize striate mosaic virus.
T6 sequence (residues 1-117, tag not shown): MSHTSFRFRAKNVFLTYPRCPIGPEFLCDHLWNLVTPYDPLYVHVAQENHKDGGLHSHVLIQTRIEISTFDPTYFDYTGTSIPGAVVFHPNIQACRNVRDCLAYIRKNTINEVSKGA
As for the experimental part:
as §1

Test [7] has as its system T7, Rep nickase domain of porcine circovirus 2.
T7 sequence (residues 2-116, tag not shown): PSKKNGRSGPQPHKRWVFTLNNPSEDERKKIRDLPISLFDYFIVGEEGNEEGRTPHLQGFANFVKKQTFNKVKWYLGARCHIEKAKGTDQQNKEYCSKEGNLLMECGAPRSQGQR
The method, then: as §1
In test [8] the test system is T8, Rep nickase domain of tomato golden mosaic virus.
T8 sequence (residues 1-124, tag not shown): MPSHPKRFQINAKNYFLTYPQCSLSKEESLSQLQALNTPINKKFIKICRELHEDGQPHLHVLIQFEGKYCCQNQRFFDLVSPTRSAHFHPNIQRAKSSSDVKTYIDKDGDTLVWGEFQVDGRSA
As for the experimental part: as §1
Test [9] concerns T9, Rep nickase domain of tomato yellow leaf curl virus.
T9 sequence (residues 1-136, tag not shown): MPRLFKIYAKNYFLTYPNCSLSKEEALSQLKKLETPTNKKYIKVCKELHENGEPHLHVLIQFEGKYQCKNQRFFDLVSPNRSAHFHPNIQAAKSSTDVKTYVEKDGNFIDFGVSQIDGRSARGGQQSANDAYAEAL
As for the experimental part:
as §1

In test [10] the test system is T10, Rep nickase domain of wheat dwarf virus.
T10 sequence (residues 1-137, tag not shown): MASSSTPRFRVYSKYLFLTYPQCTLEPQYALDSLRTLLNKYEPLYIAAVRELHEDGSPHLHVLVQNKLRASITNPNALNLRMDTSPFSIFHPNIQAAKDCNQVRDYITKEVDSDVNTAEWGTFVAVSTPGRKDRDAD
As for the experimental part: as §1

TCGCCTG: the “uncleaved DNA left (log2)” value was -0.106 in test [1]; -0.0513 in test [2]; -0.0419 in test [3]; 0.423 in test [4]; -0.0483 in test [5]; 1.14 in [6]. Also, the “uncleaved DNA left (log2)” value is 0.0393 in [7], -0.00233 in [8], 0.0228 in test [9] and 0.0178 in test [10].

As to GGCCCAG, the “uncleaved DNA left (log2)” value in test [1] is 0.0787; in test [2] it was 0.176; in [3], 0.467; in test [4], 0.946; in [5], -0.0253; in test [6] it was 1.06. Further, the “uncleaved DNA left (log2)” value is 0.112 in test [7], 0.0763 in [8], 0.0778 in test [9] and -0.0142 in test [10].

With TTTCACG, the “uncleaved DNA left (log2)” value in [1] was 0.000688; in test [2], 0.0141; in [3] it was -0.733; in test [4], -0.95; in test [5], 0.0403; in test [6] it was -1.27. Besides, the “uncleaved DNA left (log2)” value in test [7] is 0.0501; in test [8] it was -0.0726; in test [9], -0.102; in [10], -0.114.

Take CACCACC: the “uncleaved DNA left (log2)” value is -0.183 in [1]; 0.00567 in test [2]; -0.0345 in test [3]; -1.27 in test [4]; 0.0105 in test [5]; -0.573 in [6]. Besides, the “uncleaved DNA left (log2)” value in test [7] is -0.198; in test [8], -0.103; in test [9] it was -0.0434; in test [10], 0.0569.

Take CCTTCGC: the “uncleaved DNA left (log2)” value in test [1] is 0.0443; in [2] it was -0.137; in [3], -0.755; in test [4] it was -0.876; in [5], -0.0788; in test [6], -1.08. In addition, the “uncleaved DNA left (log2)” value in test [7] is -0.0504; in test [8] it was -0.205; in [9], -0.123; in test [10], -0.167.

Regarding CGGACCT, the “uncleaved DNA left (log2)” value in test [1] is -0.0859; in test [2], -0.166; in test [3] it was 0.216; in test [4], 0.862; in test [5] it was -0.142; in test [6] it was 1.32. In addition, the “uncleaved DNA left (log2)” value in test [7] was 0.00217; in test [8], -0.219; in test [9] it was -0.181; in test [10] it was 0.0156.

For ATCTGCC, the “uncleaved DNA left (log2)” value in test [1] was 0.0665; in test [2], 0.0944; in test [3] it was -0.0459; in [4], 0.172; in test [5], -0.0393; in test [6], -0.245. The “uncleaved DNA left (log2)” value was determined as 0.0816 in test [7], 0.023 in test [8], 0.00156 in test [9] and 0.00136 in [10].

For ATGCCAC, the “uncleaved DNA left (log2)” value was -0.00561 in test [1]; -0.0564 in [2]; -0.0476 in [3]; -0.204 in [4]; 0.094 in test [5]; -0.501 in [6]. In addition, the “uncleaved DNA left (log2)” value amounted to 0.0252 in test [7], 0.0756 in [8], 0.0541 in test [9] and 0.152 in test [10].

For GAGTACT, the “uncleaved DNA left (log2)” value in [1] was -2.27; in [2] it was -2.57; in test [3], -0.0588; in test [4], -1.36; in test [5], -2.53; in test [6] it was 1.68. For the same sequence, the “uncleaved DNA left (log2)” value was -3.15 in test [7], -0.155 in test [8], 0.0558 in test [9] and 0.126 in test [10].

On to ACGAGTG, for which the “uncleaved DNA left (log2)” value was -0.0533 in test [1]; 0.136 in [2]; -0.203 in [3]; 0.28 in test [4]; 0.0193 in test [5]; -0.014 in [6]. The “uncleaved DNA left (log2)” value in test [7] was 0.145; in test [8], 0.0186; in [9] it was -0.0673; in test [10], -0.0342.

For TCCGATG, the “uncleaved DNA left (log2)” value in test [1] is 0.197; in test [2], -0.00435; in [3] it was 0.117; in test [4] it was 0.538; in [5], 0.0044; in [6], 0.343. Further, the “uncleaved DNA left (log2)” value in test [7] worked out at 0.266; in [8] it was 0.0432; in [9], 0.0593; in [10], 0.154.

Turning to CCTAGCG, the “uncleaved DNA left (log2)” value was -0.0284 in [1]; 0.00453 in test [2]; -0.829 in test [3]; 0.281 in test [4]; 0.0239 in test [5]; -0.689 in test [6]. Moreover, the “uncleaved DNA left (log2)” value in test [7] is 0.106; in test [8], -0.091; in test [9], 0.0925; in test [10], -0.131.

On to CCCAGCG, for which the “uncleaved DNA left (log2)” value in test [1] is -0.0961; in [2], -0.139; in test [3] it was -0.749; in [4], 0.389; in test [5], -0.11; in test [6], -0.61. For the same sequence, the “uncleaved DNA left (log2)” value is 0.0457 in [7], -0.0595 in test [8], -0.0433 in test [9] and -0.0647 in test [10].

Take ACCATAG: the “uncleaved DNA left (log2)” value in [1] is -0.0388; in test [2] it was 0.132; in [3] it was -0.0549; in [4], 1.1; in [5], 0.0183; in test [6], 0.334. Besides, the “uncleaved DNA left (log2)” value is 0.261 in test [7], -0.0545 in test [8], 0.113 in [9] and -0.0986 in test [10].

For the sequence TACCATT, the “uncleaved DNA left (log2)” value was 0.0552 in [1]; -0.142 in test [2]; -1.38 in test [3]; -2.86 in [4]; 0.0742 in test [5]; -1.04 in test [6]. For the same sequence, the “uncleaved DNA left (log2)” value is -3.06 in test [7], -0.217 in test [8], -0.0167 in test [9] and -0.125 in test [10].

For the origin of these results see the supplement of paper PMC7826260.
